Reference: patent publication US20240218024A1 (TECHNION RESEARCH AND DEVELOPMENT FOUNDATION, published 2024)

Target: his-tagged SARS-CoV-2 Spike receptor binding domain (RBD), expressed in the lab in 293F cells, coval (SARS-CoV-2)
Test: fluorescence microscopy, overlay of mCherry and FITC channels

B1: slncRNA-PP7bsx14-tdPP7-mCherry granules (other)
chain: MGSSHHHHHHSSGLVPRGSHMLASKTIVLSVGEATRTLTEIQSTADRQIFEEKVGPLVGRLRLTASLRQNGAKTAYRVNLKLDQADVVDSGLPKVRYTQVWSHDVTIVANSTEASRKSLYDLTKSLVATSQVEDLVVNLVPLGRADPLASKTIVLSVGEATRTLTEIQSTADRQIFEEKVGPLVGRLRLTASLRQNGAKTAYRVNLKLDQADVVDSGLPKVRYTQVWSHDVTIVANSTEASRKSLYDLTKSLVATSQVEDLVVNLVPLGRPPVA[not shown - about 250 residues]
- binding result: no binding (tested: 842 nM protein, 112.8 nM slncRNA)
